{"source": "paper PMC7819943", "about": "“Rice protein-binding microarrays: a tool to detect cis-acting elements near promoter regions in rice”", "note": "Some of the results follow."}
{"target": "T1, OsWOX13 (Oryza sativa, UniProt Q5QMM3 1-267)", "T1 sequence": "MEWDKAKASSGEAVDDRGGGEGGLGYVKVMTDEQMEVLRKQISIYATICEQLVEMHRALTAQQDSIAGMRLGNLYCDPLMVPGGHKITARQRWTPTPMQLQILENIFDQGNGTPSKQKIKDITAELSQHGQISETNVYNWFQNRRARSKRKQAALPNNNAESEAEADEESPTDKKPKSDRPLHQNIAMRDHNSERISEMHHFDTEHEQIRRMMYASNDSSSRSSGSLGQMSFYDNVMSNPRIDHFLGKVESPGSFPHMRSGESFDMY", "assay": "protein-binding microarray (RPBM); PBS, 2% BSA, 51.3 ng/ul salmon testes DNA, 50 uM zinc acetate, 200 nM TF, 25 C, 1 h; high values mean tight binding", "conditions": "protein: recombinant; tags: N-terminal polyhistidine and DsRed monomer fusion (pET32a); label: CyDye5-dUTP incorporated in the synthesized complementary strand; 3' TTTTT single-stranded linker to array surface; dsDNA, one strand shown", "summary_of_the_method": "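The binding signal is fluorescence intensity per feature, in arbitrary units, read on an Axon 4000B scanner. Polyhistidine- and DsRed-tagged transcription factors (N-terminal fusions) from E. coli BL21-CodonPlus were purified on Ni–NTA and applied at 200 nM for 1 h at 25 °C to a double-stranded, BSA-blocked custom Agilent array in buffer with 50 µM zinc acetate.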"}
{"sequence": "TTAATTGTAGTATAATTACGGTAAAATTATATTACAATTTCGGAGTCACCTAGTGCAG", "binding signal": "21100 fluorescence intensity (a.u.)"}
{"sequence": "ACAAATTTATTGTTATCAATGATGGCCATGATTATTCGGTCGGAGTCACCTAGTGCAG", "binding signal": "38200 fluorescence intensity (a.u.)"}
{"sequence": "TCATTAATTTGAAAGGGAAGATTAAGCTCAATGCAGGAGTCGGAGTCACCTAGTGCAG", "binding signal": "28800 fluorescence intensity (a.u.)"}
{"sequence": "GTAGAAATTTGTTATATGATAATATTATAATTACTAGCTTCGGAGTCACCTAGTGCAG", "binding signal": "5320 fluorescence intensity (a.u.)"}
{"sequence": "TTAAATGGTGAAGAAATTGAAGAAGGGGCTTCGATGGCAGCGGAGTCACCTAGTGCAG", "binding signal": "8370 fluorescence intensity (a.u.)"}
{"sequence": "TTTTCATAAATTTGGATAAACAATCTAGTACTTACTGGGACGGAGTCACCTAGTGCAG", "binding signal": "3150 fluorescence intensity (a.u.)"}
{"sequence": "ATTATTTAGTAAAATTGACAATCATGTTGTTGCATTTAGTCGGAGTCACCTAGTGCAG", "binding signal": "16000 fluorescence intensity (a.u.)"}
{"sequence": "TCTGTAATTGAACGAGTCAATAGCTAGAGCTGTCAGACAGCGGAGTCACCTAGTGCAG", "binding signal": "20800 fluorescence intensity (a.u.)"}
{"sequence": "TGTGACATGATTGTGTGTCCACCAATCTATGAAACATCATCGGAGTCACCTAGTGCAG", "binding signal": "37800 fluorescence intensity (a.u.)"}
{"sequence": "TTTATGGTCTTCCAATCACGGGCCGTAATTAAGGCCTATGCGGAGTCACCTAGTGCAG", "binding signal": "25300 fluorescence intensity (a.u.)"}
{"sequence": "CTAAACTGAAAATAGGAAATAAATAAGTTGATCTCCCTAACGGAGTCACCTAGTGCAG", "binding signal": "3750 fluorescence intensity (a.u.)"}
{"sequence": "ATATAATTACATGTATCTATCTGAACGAACATGTACTGCGCGGAGTCACCTAGTGCAG", "binding signal": "26200 fluorescence intensity (a.u.)"}
{"sequence": "ACATTCATATTGATGTTAATGATTCTAGACATATATATCTCGGAGTCACCTAGTGCAG", "binding signal": "4710 fluorescence intensity (a.u.)"}
{"sequence": "CTTTGACTTAATATAACCACCACATTTGCCTTTTGACTTTCGGAGTCACCTAGTGCAG", "binding signal": "6940 fluorescence intensity (a.u.)"}
{"sequence": "TGCTTAAATTTATAGCTTTCTAATAAATTTGTTCATTTAGCGGAGTCACCTAGTGCAG", "binding signal": "14700 fluorescence intensity (a.u.)"}
{"sequence": "AAAACGGAATGATAGATTAACATATAATTAATTAAGTATTCGGAGTCACCTAGTGCAG", "binding signal": "19300 fluorescence intensity (a.u.)"}
{"sequence": "TTAGATTGGATCATGACGCCAATGTTATTGGTGCTATTAGCGGAGTCACCTAGTGCAG", "binding signal": "33600 fluorescence intensity (a.u.)"}
{"sequence": "CCTTAATTAATTAATTTCTAGATCTCAAGAGGGCAACAGACGGAGTCACCTAGTGCAG", "binding signal": "57200 fluorescence intensity (a.u.)"}
{"sequence": "TTTAATTGCAACGAATTTAATGGTGTAATCGGATCATGATCGGAGTCACCTAGTGCAG", "binding signal": "22600 fluorescence intensity (a.u.)"}
{"sequence": "TGAAAGATTAGATTTATAAAGTTATCCTGTTGGATCAGAACGGAGTCACCTAGTGCAG", "binding signal": "16000 fluorescence intensity (a.u.)"}
{"sequence": "TCAATATGATTTTAGTGATATTATAAATATGTCGCTGGTCCGGAGTCACCTAGTGCAG", "binding signal": "4480 fluorescence intensity (a.u.)"}
{"sequence": "ATGATAGATAGATATAGATGAGCAGGTGGAAATGAATGTGCGGAGTCACCTAGTGCAG", "binding signal": "27400 fluorescence intensity (a.u.)"}
{"sequence": "TAATTTGATTTGTTATTATAGTATAATAGTTGAGGAATGACGGAGTCACCTAGTGCAG", "binding signal": "17300 fluorescence intensity (a.u.)"}
{"sequence": "ATTGATTGGTCTATGAAAACAAGTTAGGCTCACATGCAACCGGAGTCACCTAGTGCAG", "binding signal": "47900 fluorescence intensity (a.u.)"}
{"sequence": "CAAAATTAAGTTTTAAATTTTAAATTTTGGCAGTGCCTGACGGAGTCACCTAGTGCAG", "binding signal": "14800 fluorescence intensity (a.u.)"}
{"sequence": "GTCTAATGTATAATCCATTATACCATGTCACTGACTTTGTCGGAGTCACCTAGTGCAG", "binding signal": "4340 fluorescence intensity (a.u.)"}
{"sequence": "ATGATTGAACATGAAACTTTAGACTTAAAATCACACATTACGGAGTCACCTAGTGCAG", "binding signal": "35100 fluorescence intensity (a.u.)"}
{"sequence": "AAGGGTAATTGTACGTGTGTTGTGAGTATCTATGTTTGTACGGAGTCACCTAGTGCAG", "binding signal": "6180 fluorescence intensity (a.u.)"}
{"sequence": "CAAAATATAATTGTCCAAACACAATTAAGATTGTAGCTTGCGGAGTCACCTAGTGCAG", "binding signal": "16900 fluorescence intensity (a.u.)"}
{"sequence": "ATTTAGATTCATTAACATCAATATAAATATGAAAGATGACCGGAGTCACCTAGTGCAG", "binding signal": "3850 fluorescence intensity (a.u.)"}
{"sequence": "GCGCAATTATAATGGATCAAATTATTGGAGTATGGACACCCGGAGTCACCTAGTGCAG", "binding signal": "7360 fluorescence intensity (a.u.)"}
{"sequence": "GACGTTGATCTGCTAATGACATATCCAATCGATTACGGGACGGAGTCACCTAGTGCAG", "binding signal": "3250 fluorescence intensity (a.u.)"}
{"sequence": "GATTAATTGACTGATTAATTAATTAATTAAATCTCCTCCTCGGAGTCACCTAGTGCAG", "binding signal": "48100 fluorescence intensity (a.u.)"}
{"sequence": "ATTTGATAATAAATCAAGTCACGATAAAATAAATGATAATCGGAGTCACCTAGTGCAG", "binding signal": "4950 fluorescence intensity (a.u.)"}
{"sequence": "CAGCTAACCTTAATGGACAATGACGATGTAACTGAACTGCCGGAGTCACCTAGTGCAG", "binding signal": "7830 fluorescence intensity (a.u.)"}
{"sequence": "GCATATTCCTAATGACAATCACTGCTTTCTTTTGATACTGCGGAGTCACCTAGTGCAG", "binding signal": "3670 fluorescence intensity (a.u.)"}
{"sequence": "ATGTCAGGGCGGACGAATACTATATGCCACGTGAGCTAATCGGAGTCACCTAGTGCAG", "binding signal": "6450 fluorescence intensity (a.u.)"}
{"sequence": "ATTGATTTGAATTCCAAATTTGTAATGATGTTGATCACCTCGGAGTCACCTAGTGCAG", "binding signal": "39400 fluorescence intensity (a.u.)"}
{"sequence": "GCTTTATCCCGCCTTCAATCTGCCTCGATTGGATTGCTTCCGGAGTCACCTAGTGCAG", "binding signal": "4280 fluorescence intensity (a.u.)"}
{"sequence": "TTTGATGAACTAGTTGATAGGTCCTTCTTGCAACCAACAGCGGAGTCACCTAGTGCAG", "binding signal": "17100 fluorescence intensity (a.u.)"}
{"sequence": "GAGGATGATGATGATGATGAGTTCTCTCTTCACTTGCGTCCGGAGTCACCTAGTGCAG", "binding signal": "6630 fluorescence intensity (a.u.)"}
{"sequence": "ATTTGCGCTACCAAGTGATTGACACTCCAGGGATCCTTGACGGAGTCACCTAGTGCAG", "binding signal": "15400 fluorescence intensity (a.u.)"}
